From PubChem BioAssay (Tox21)
Inconclusive means that the source gave no clear call. Such entries were picked first, then a sample of the others. For some assays here: No potency is given beside an inconclusive call; the fits are too rough. Calls of active or inactive are those of the source. Unless noted, calls come from the whole dose curve.

Tests used:
[1] = qHTS assay to identify small molecule antagonists of the farnesoid-X-receptor (FXR) signaling pathway - cell viability counter screen (AID 743221; active = well fitted cell-killing curve with a large enough effect in the repeat runs, not every such curve was filed as active; inconclusive = weak or mixed curves, or effect the other way; inactive = no such curve, though single readings can be large or run the other way; note: potency is the fitted concentration of half-maximal effect; nearly all actives have a fitted effect of over 50% in size); conditions: FXR-bla HEK293T viability, CellTiter-Glo luminescence, 16 h; activity change, negative = cytotoxicity: at 62.6 µM (top of the series) unless noted
In short: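 Here viability was scored by luminescence after CellTiter-Glo addition to wells already read for beta-lactamase. Prior treatment: compound plus CDCA (50 uM final), 16 h, 37 C, HEK 293T FXR-bla cells.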

[2] = qHTS assay to identify small molecule antagonists of the vitamin D receptor (VDR) signaling pathway - cell viability counter screen (AID 743225; active = well fitted cell-killing curve with a large enough effect in the repeat runs; inconclusive = weak or mixed curves, or effect the other way; inactive = no such curve, though single readings can be large or run the other way; note: nearly all actives have a fitted effect of over 50% in size; note: potency is the fitted concentration of half-maximal effect); conditions: VDR-bla HEK293T viability, CellTiter-Glo luminescence, 16 h; viability change, negative = cytotoxic: at 61 µM (top of the series) unless noted
In short: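 Compounds were pinned onto VDR-bla HEK 293T cells together with 1-alpha,25-dihydroxyvitamin D3 at 3 nM final. After 16 h at 37C and 5% CO2 plus the reporter readout, cell viability was measured by CellTiter-Glo luminescence (30 min, room temperature).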

[3] = qHTS assay to identify small molecule agonists of the AP-1 signaling pathway (AID 1159526); conditions: ME-180 (cervical carcinoma) AP-1-bla reporter, beta-lactamase FRET ratio, 5 h; activation: at 76.8 µM (top of the series) unless noted; note: potency is the fitted concentration of half-maximal effect
[4] = qHTS assay to identify small molecule agonists of the farnesoid-X-receptor (FXR) signaling pathway - cell viability counter screen (AID 743218; active = well fitted cell-killing curve with a large enough effect in the repeat runs; inconclusive = weak or mixed curves, or effect the other way; inactive = no such curve, though single readings can be large or run the other way; note: nearly all actives have a fitted effect of over 45% in size; note: potency is the fitted concentration of half-maximal effect); conditions: FXR-bla HEK293T viability, CellTiter-Glo luminescence, 16 h; viability change, negative = cytotoxic: at 62.6 µM (top of the series) unless noted
In short: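 Readout: CellTiter-Glo luminescence, 30 min RT, multiplexed after the FXR-bla FRET reading. HEK 293T FXR-UAS-bla cells received compound 5 h post-plating and were incubated 16 h at 37 C.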

[5] = target: Vitamin D3 receptor (Homo sapiens) (UniProt P11473); assay: qHTS assay to identify small molecule agonists of the vitamin D receptor (VDR) signaling pathway (AID 743222); conditions: HEK293T VDR-UAS-bla, beta-lactamase FRET ratio, 16 h; activation: at 63.5 µM (top of the series) unless noted; note: % is set by controls: 0 for no effect and ±100 for the full control effect
In short: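 Following 4 h attachment at 37C, VDR-bla cells (2,000 per well) received DMSO-dissolved compounds or controls. After 16 h incubation, LiveBLAzer B/G FRET substrate was added and fluorescence read 2 h later at room temperature.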

[6] = target: Vitamin D3 receptor (Homo sapiens) (UniProt P11473); assay: qHTS assay to identify small molecule antagonists of the vitamin D receptor (VDR) signaling pathway (AID 743223; active = well fitted inhibition curve with a large enough effect in the signal ratio in the repeat runs, not every such curve was filed as active; inconclusive = weak or mixed curves, or effect the other way; inactive = no such curve, though single readings can be large or run the other way; the % refers to the signal ratio; note: % is set by controls: 0 for no effect and ±100 for the full control effect); conditions: VDR-UAS-bla HEK293T, beta-lactamase FRET ratio, 16 h; activity change, negative = inhibition: at 61 µM (top of the series) unless noted
In short: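 Inhibition of agonist-driven VDR signalling is scored in VDR-bla cells: 3 nM final 1alpha,25-dihydroxyvitamin D3 plus compound, 16 h at 37C, then beta-lactamase detection by FRET substrate fluorescence after 2 h.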

[7] = qHTS assay to identify small molecule agonists of the vitamin D receptor (VDR) signaling pathway - cell viability counter screen (AID 743224; active = well fitted cell-killing curve with a large enough effect in the repeat runs; inconclusive = weak or mixed curves, or effect the other way; inactive = no such curve, though single readings can be large or run the other way; note: % is set by controls: 0 for no effect and ±100 for the full control effect; nearly all actives have a fitted effect of over 50% in size); conditions: VDR-bla HEK293T viability, CellTiter-Glo luminescence, 16 h; activity change, negative = cytotoxicity: at 62.6 µM (top of the series)
In short: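 In parallel with the bla FRET readout, cytotoxicity toward VDR-bla cells after 16 h compound exposure was assessed by CellTiter-Glo, with luminescence recorded after a 30 min room-temperature incubation.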

[8] = target: Bile acid receptor (Homo sapiens) (UniProt Q96RI1); assay: qHTS assay to identify small molecule agonists of the farnesoid-X-receptor (FXR) signaling pathway (AID 743220; active = well fitted activation curve with a large enough effect in the signal ratio in the repeat runs, not every such curve was filed as active; inconclusive = weak or mixed curves, or effect the other way; the % refers to the signal ratio; note: % is set by controls: 0 for no effect and ±100 for the full control effect); conditions: HEK293T FXR-UAS-bla, beta-lactamase FRET ratio, 16 h; activation: at 62.6 µM (top of the series)
In short: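 FXR-UAS-bla HEK 293T cells carrying a UAS-driven beta-lactamase reporter were plated for 5 h at 37C/5% CO2, then exposed to DMSO-dissolved Tox21 10K compounds for 16 h at 37C. A LiveBLAzer B/G FRET substrate was loaded for 2 h at room temperature before fluorescence reading.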

[9] = qHTS assay for small molecule agonists of the antioxidant response element (ARE) signaling pathway (AID 743202; active = well fitted activation curve with a large enough effect in the signal ratio in the repeat runs, not every such curve was filed as active; inconclusive = weak or mixed curves, or effect the other way; inactive = no such curve, though single readings can be large or run the other way; the % refers to the signal ratio; note: % is set by controls: 0 for no effect and ±100 for the full control effect); conditions: HepG2 ARE-bla reporter, beta-lactamase FRET, 16 h; activation: at 73.3 µM (top of the series) unless noted
In short: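 HepG2 ARE-bla cells; 16 h treatment at 37 C; FRET-based beta-lactamase fluorescence read after 2 h substrate incubation at room temperature.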
Tags give direction and shape of the fitted curve or compound fluorescence and quenching.

Sequence of UniProt P11473 (P11473 whole entry, looked up): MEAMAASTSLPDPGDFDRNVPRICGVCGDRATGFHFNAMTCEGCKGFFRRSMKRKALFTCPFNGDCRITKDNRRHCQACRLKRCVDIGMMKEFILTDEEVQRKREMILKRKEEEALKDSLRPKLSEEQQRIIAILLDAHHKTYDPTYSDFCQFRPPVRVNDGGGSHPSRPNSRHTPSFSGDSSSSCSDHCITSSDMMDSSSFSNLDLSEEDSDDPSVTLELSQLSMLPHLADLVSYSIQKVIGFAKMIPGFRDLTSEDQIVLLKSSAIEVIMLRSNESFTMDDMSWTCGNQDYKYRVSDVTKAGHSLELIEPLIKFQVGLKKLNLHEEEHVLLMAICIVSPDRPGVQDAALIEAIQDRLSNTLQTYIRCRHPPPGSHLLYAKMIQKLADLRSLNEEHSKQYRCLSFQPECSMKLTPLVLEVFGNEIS
Sequence of UniProt Q96RI1 (Q96RI1 whole entry, looked up): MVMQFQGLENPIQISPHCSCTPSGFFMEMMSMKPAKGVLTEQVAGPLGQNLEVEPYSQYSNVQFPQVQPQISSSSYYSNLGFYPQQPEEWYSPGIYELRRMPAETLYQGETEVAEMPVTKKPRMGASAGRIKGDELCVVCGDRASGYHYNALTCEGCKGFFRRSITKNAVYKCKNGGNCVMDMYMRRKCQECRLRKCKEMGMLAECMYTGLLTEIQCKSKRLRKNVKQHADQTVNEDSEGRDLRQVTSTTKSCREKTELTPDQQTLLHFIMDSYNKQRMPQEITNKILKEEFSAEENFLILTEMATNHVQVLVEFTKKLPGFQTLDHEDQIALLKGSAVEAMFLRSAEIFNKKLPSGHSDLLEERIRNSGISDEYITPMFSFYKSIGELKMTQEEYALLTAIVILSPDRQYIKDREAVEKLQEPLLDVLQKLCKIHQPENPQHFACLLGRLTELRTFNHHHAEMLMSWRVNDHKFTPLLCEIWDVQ

## Cc1c(-c2ccccc2)oc2c(C(=O)OCCN3CCCCC3)cccc2c1=O
[1]
  Potency: inconclusive [falling, partial curve, poor fit]
[2]
  Potency: inconclusive [cytotoxic, full curve, poor fit]
[3]
  Potency: inconclusive [activator, partial curve]

## CN1CCC[C@@H]1c1cccnc1
[2]
  Potency: inconclusive [rising, single point]
[3]
  Potency: inconclusive [activator, full curve, poor fit]

## C=C(C)C(N)=O
[4]
  Potency: inconclusive [rising, full curve, poor fit]
[5]
  activation: inconclusive: -1.05%
[6]
  Potency: inactive
[7]
  Potency: inactive
[3]
  Potency: inactive

## CCC(=O)/C=C/c1ccc(OC)cc1
[1]
  Potency: inconclusive [falling, full curve, poor fit]
[6]
  Potency: inactive
[3]
  Potency: inactive

## Cc1ccc(C(C)C)cc1O
[6]
  activity change, negative = inhibition: inconclusive: -0.743%
[3]
  Potency: inconclusive [activator, single point]

## O=C(OCCOCCOC(=O)c1ccccc1)c1ccccc1
[8]
  Potency: inactive
[6]
  Potency: inactive
[3]
  Potency: inactive

## O=C1CCCCCO1
[9]
  Potency: inactive

## NCCCN1CCOCC1
[9]
  activation: inconclusive: 15.8%

## ClC(Cl)(Br)Br
[6]
  Potency: inactive
[3]
  Potency: inactive

## COP(=O)(O)OP(=O)(O)OC
[6]
  Potency: inactive
[2]
  viability change, negative = cytotoxic: inconclusive: 1.49% [cytotoxic]
[3]
  Potency: inactive

## CC[C@]12CCCN3CCc4c(n(c5ccccc45)C(=O)C1)[C@@H]32
[4]
  Potency: inactive
[5]
  activation: inconclusive: -26.5%
[6]
  activity change, negative = inhibition: inconclusive: -20.1%
[3]
  Potency: inconclusive [full curve]
